In this assay the target is T1, recombinant human MDM2 (human).
T1 construct: E3 ubiquitin-protein ligase MDM2, human; source: bought: Biotechne ([…]-050)
Nature of the assay: SPR; Tau variants immobilised on a CM5 chip by amine coupling; five twofold increasing concentrations of MDM2 from 37.5 nM, single-cycle kinetics; 25 °C; 10 mM HEPES pH 7.4, 150 mM NaCl, 3 mM EDTA, 0.005% Tween-20; Biacore 8K. The note with it: both partners purified. A general note: Surface plasmon resonance follows binding to a sensor surface in real time, without labels.

Drawing on article PMC10290082, “Tau protein binds to the P53 E3 ubiquitin ligase MDM2” (Scientific Reports, 2023), this text covers Kd for one molecule.

B1: recombinant human Tau_(2N4R) protein Pro301Leu (natural protein)
chain: not shown
notes: microtubule-associated protein Tau, human, 2N4R isoform with the autosomal dominant FTLD-Tau mutation P301L; numbers count on: the 2N4R isoform; also called Tau_(P301L); FTLD-Tau variant P301L; source: E. coli, purified recombinant (provided by Prof. Luca Colnaghi)
One may read the Kd as the free concentration of one partner at which half of the binding sites on the other are occupied at equilibrium, for simple one-to-one binding. Consider B1, for which the Kd was 0.0106 µM.
